# Where a chain is given by its changes, count along the chain named. The list shows a part of the results.
# T1: RBFOX1 RRM RbFoxmut (Fox-RRM*) (Homo sapiens, UniProt Q9NWB1 109-208, R118D;E147R;N151S;E152T)
# T1 sequence: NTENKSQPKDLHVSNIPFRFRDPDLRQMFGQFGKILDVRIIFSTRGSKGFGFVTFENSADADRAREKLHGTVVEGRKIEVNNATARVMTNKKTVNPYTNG
# B1: GAUCCCG (DNA:RNA)
# RNA: GGGAGACCGGAAUUCAGAUUGUCCGAUCCCGUUAAAUCCCGUCGUAGCCACCA
# DNA 1: CAATCTGAATTCCGGTCTCCC
# DNA 2: TGGTGGCTACGACGGGATT
# B2: UUGCUUG (DNA:RNA)
# RNA: B1 RNA with G25U, A26U, U27G, C29U, C30U
# DNA 1: CAATCTGAATTCCGGTCTCCC
# DNA 2: TGGTGGCTACGACGGGATT
# B3: GGAAAGA (DNA:RNA)
# RNA: B1 RNA with A26G, U27A, C28A, C29A, C30G, G31A
# DNA 1: CAATCTGAATTCCGGTCTCCC
# DNA 2: TGGTGGCTACGACGGGATT
# B4: UCAACGA (DNA:RNA)
# RNA: B1 RNA with G25U, A26C, U27A, C28A, C30G, G31A
# DNA 1: CAATCTGAATTCCGGTCTCCC
# DNA 2: TGGTGGCTACGACGGGATT
# B5: CGGAAUU (DNA:RNA)
# RNA: GGGAGACCGGAAUUCAGAUUGUCCCGGAAUUUUAAAUCCCGUCGUAGCCACCA
# DNA 1: CAATCTGAATTCCGGTCTCCC
# DNA 2: TGGTGGCTACGACGGGATT
# B6: UGUAACG (DNA:RNA)
# RNA: B5 RNA with C25U, G27U, U30C, U31G
# DNA 1: CAATCTGAATTCCGGTCTCCC
# DNA 2: TGGTGGCTACGACGGGATT
# B7: UGCACGG (DNA:RNA)
# RNA: B5 RNA with C25U, G27C, A29C, U30G, U31G
# DNA 1: CAATCTGAATTCCGGTCTCCC
# DNA 2: TGGTGGCTACGACGGGATT
# B8: GAGGAUC (DNA:RNA)
# RNA: B5 RNA with C25G, G26A, A28G, U31C
# DNA 1: CAATCTGAATTCCGGTCTCCC
# DNA 2: TGGTGGCTACGACGGGATT
# B9: CAAACGA (DNA:RNA)
# RNA: B5 RNA with G26A, G27A, A29C, U30G, U31A
# DNA 1: CAATCTGAATTCCGGTCTCCC
# DNA 2: TGGTGGCTACGACGGGATT
# B10: GCACAGU (DNA:RNA)
# RNA: B5 RNA with C25G, G26C, G27A, A28C, U30G
# DNA 1: CAATCTGAATTCCGGTCTCCC
# DNA 2: TGGTGGCTACGACGGGATT
# B11: UCCAGUA (DNA:RNA)
# RNA: B5 RNA with C25U, G26C, G27C, A29G, U31A
# DNA 1: CAATCTGAATTCCGGTCTCCC
# DNA 2: TGGTGGCTACGACGGGATT
# B12: CCCAAGU (DNA:RNA)
# RNA: B5 RNA with G26C, G27C, U30G
# DNA 1: CAATCTGAATTCCGGTCTCCC
# DNA 2: TGGTGGCTACGACGGGATT
# B13: GGGCGAU (DNA:RNA)
# RNA: B5 RNA with C25G, A28C, A29G, U30A
# DNA 1: CAATCTGAATTCCGGTCTCCC
# DNA 2: TGGTGGCTACGACGGGATT
# B14: CACGGUA (DNA:RNA)
# RNA: B5 RNA with G26A, G27C, A28G, A29G, U31A
# DNA 1: CAATCTGAATTCCGGTCTCCC
# DNA 2: TGGTGGCTACGACGGGATT
# B15: AUUCAAA (DNA:RNA)
# RNA: B1 RNA with G25A, A26U, C29A, C30A, G31A
# DNA 1: CAATCTGAATTCCGGTCTCCC
# DNA 2: TGGTGGCTACGACGGGATT
# B16: AACUAAA (DNA:RNA)
# RNA: B5 RNA with C25A, G26A, G27C, A28U, U30A, U31A
# DNA 1: CAATCTGAATTCCGGTCTCCC
# DNA 2: TGGTGGCTACGACGGGATT
# B17: UCUAGGU (DNA:RNA)
# RNA: B5 RNA with C25U, G26C, G27U, A29G, U30G
# DNA 1: CAATCTGAATTCCGGTCTCCC
# DNA 2: TGGTGGCTACGACGGGATT
# B18: ACUUCGG (DNA:RNA)
# RNA: B1 RNA with G25A, A26C, C28U, C30G
# DNA 1: CAATCTGAATTCCGGTCTCCC
# DNA 2: TGGTGGCTACGACGGGATT
# B19: UGUUAGG (DNA:RNA)
# RNA: B5 RNA with C25U, G27U, A28U, U30G, U31G
# DNA 1: CAATCTGAATTCCGGTCTCCC
# DNA 2: TGGTGGCTACGACGGGATT
# B20: ACCGGCU (DNA:RNA)
# RNA: B5 RNA with C25A, G26C, G27C, A28G, A29G, U30C
# DNA 1: CAATCTGAATTCCGGTCTCCC
# DNA 2: TGGTGGCTACGACGGGATT
# Target: T1, RBFOX1 RRM RbFoxmut (Fox-RRM*)
# Assay: EMSA; HiTS-Eq, 1 nM pool, 10 min; buffer printed only for the single-RNA assays: 10 mM Tris pH 7.5, 150 mM NaCl, 3.4 mM EDTA, 0.001% NP-40, 30 C
# Conditions: tags: His6 N-terminal (pET28a); label: 5' 32P
# Method in brief: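 These values rest on relative association constants, computed from read-count changes of each RNA species versus the control reaction and normalised to the cognate motif. Reads came from free RNA recovered by 8% native PAGE after purified RbFox RRM (wild type or mutant) at increasing concentrations was equilibrated for 10 min in 50 µL with 1 nM of a 5′-radiolabelled pool with 7 randomized nucleotides and DNA-annealed flanks.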
row,Binder,binding signal
1,B1,0.0748 KA relative to UGCAUGU
2,B2,0.503 KA relative to UGCAUGU
3,B3,0.0538 KA relative to UGCAUGU
4,B4,0.0449 KA relative to UGCAUGU
5,B5,0.0639 KA relative to UGCAUGU
6,B6,0.157 KA relative to UGCAUGU
7,B7,0.308 KA relative to UGCAUGU
8,B8,0.0977 KA relative to UGCAUGU
9,B9,0.0408 KA relative to UGCAUGU
10,B10,0.0768 KA relative to UGCAUGU
11,B11,0.135 KA relative to UGCAUGU
12,B12,0.091 KA relative to UGCAUGU
13,B13,0.0887 KA relative to UGCAUGU
14,B14,0.184 KA relative to UGCAUGU
15,B15,0.0787 KA relative to UGCAUGU
16,B16,0.147 KA relative to UGCAUGU
17,B17,0.0903 KA relative to UGCAUGU
18,B18,0.0698 KA relative to UGCAUGU
19,B19,0.0799 KA relative to UGCAUGU
20,B20,0.0704 KA relative to UGCAUGU

# From paper PMC9911399, “Two distinct binding modes provide the RNA-binding protein RbFox with extraordinary sequence specificity”
